Assay results: PubChem BioAssay AID1963576 (National Center for Advancing Translational Sciences (NCATS), 2024)
Among all 46,000 compounds or so, about 60 (0.1%) were called active. Another 3% or so got no clear call; they are omitted. The call rests on the fitted dose curve; in most records, active means well fitted inhibition curve with a large enough effect; inconclusive means small, poorly fitted or top-dose-only effect; inactive means no such curve, though single readings can be large or run the other way. Some of the results follow.

Test: Primary qHTS assay for Inhibitors of ovarian cancer metastasis using an organotypic tumor microenvironment (TME) model. Further: nearly all actives have a fitted effect of over 65% in size.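 On activity change, negative = inhibition: plate controls were DMSO wells for no effect and tomatine positive control wells for full effect.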
Conditions: SKOV3ip1-GFP adhesion/invasion on 3D omental model, fluorescence; series mostly up to 45.8 µM; activity change, negative = inhibition: at the top concentration
In short: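 Primary human omental fibroblast/mesothelial 3D culture pre-formed 48 h. SKOV3ip1-GFP cells added with compounds (0.36-46 umol/L), incubated 2 h RT/16 h 37 C, fixed; GFP cells quantified at 488/509 nm.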

Activity change, negative = inhibition, inactive:
COc1cc(OC)c(NC(=O)c2c(N3CCCC3=O)c3cc(C)ccc3n2C)cc1Cl -4.02%, CC(C)Oc1ccc(CNC(=O)c2ccc3c(c2)nc2n3CCCCC2)cc1 2.18%, Cc1ccccc1OCC(=O)Nc1nnc(S(=O)(=O)N2CCCC2)s1 -0.976%, CCOc1ccccc1NC(=O)Cn1ncc2c([nH]c3ccccc32)c1=O -6.68%, Cc1cc(=O)n2nc(N3CCC(C(=O)Nc4c(C)cccc4C)CC3)sc2n1 73%, CCOc1ccc(N2CC(c3nc4ccccc4n3CCCCOc3ccc(OC)cc3)CC2=O)cc1 (stereo unspecified) 2.15%, COc1ccc(C2=C(C)C(=O)N(Cc3ccc(C(=O)NC(C)c4ccccc4)cc3)S2(=O)=O)cc1 (stereo unspecified) -2.43%, Cc1cccc(OC(C)C(=O)Nc2nonc2-c2ccc(Br)cc2)c1C (stereo unspecified) 2.23%, COc1ccccc1CCN1COc2c(cc3c(C)c(C)c(=O)oc3c2C)C1 0.939%, O=C(NC1CCCCCC1)C1c2ccccc2C(=O)N1Cc1ccc(F)cc1 (stereo unspecified) 12.9%, Oc1c(C(c2ccccc2)N2CCOCC2)sc2nc(-c3ccco3)nn12 (stereo unspecified) -9.08%, CCN(CC)c1ccc(NC(=O)CN2CCN(c3ccccc3OC)CC2)cc1 6.39%, Nc1c(C(=O)Nc2cccc(F)c2)nnn1-c1cccc(C(F)(F)F)c1 -7.04%, Cc1cc(C)cc(NC(=O)c2sc3nc4n(c(=O)c3c2C)N=C(c2ccccc2)CS4)c1 -8.56%, O=C(NCCc1ccccc1)C1CCN(Cc2cc3ccccc3n2Cc2ccccc2)CC1 1.79%, Cc1ccc(NC(=O)CSc2nc(-c3cccs3)nc3cc(=O)[nH]n23)cc1C -40.5%, CCOc1ccccc1CN1CCc2nc(N3CCN(C)CC3)ncc2C1 -1.39%, Cc1ccc(CNC(=O)Cn2c(=O)cc(C)c3c(C)nn(-c4cccc(F)c4)c32)cc1 2.98%, O=C(Cn1ncc2c3ccccc3n(Cc3cccc(Cl)c3)c2c1=O)NCCCN1CCCCC1 -5.82%, CCOCCCNc1nc2c(S(=O)(=O)c3ccc(CC)cc3)nnn2c2ccc(Cl)cc12 -5.23%, O=C(Nc1ccc(C(=O)N2CCN(c3ccccc3F)CC2)cc1)c1nsc2ccccc12 -0.631%, CCOc1ccc(-c2cc(C(=O)NC(C)c3ccccc3)c3ccccc3n2)cc1 (stereo unspecified) -13.2%, CN1C(C(=O)c2ccccc2)=C(NC(=O)c2ccc(F)cc2)c2ccccc2S1(=O)=O 1.18%, COc1ccc(-c2onc(C)c2C)cc1S(=O)(=O)Nc1cccc(C#N)c1 -6.84%, O=C(NCCc1ccc(Cl)cc1)c1ccc2c(c1)nc1n2CCOC1 -8.4%, CCOc1ccc(C(=O)NCC(c2ccc(Cl)cc2)N2CCCCC2)cc1 (stereo unspecified) 0.735%, Nc1nc(=O)n([C@H]2C[C@H](O)[C@@H](CO)O2)cc1F 26.5%, CNC(=O)c1ccc(-c2cnc3ncc(Cc4ccc5ncccc5c4)n3n2)cc1F -6.77%, N#CNC(=NCCCCCCOc1ccc(Cl)cc1)Nc1ccncc1 -8.89%, CCCNC(=O)CSc1c(CCC)cnc2c1c(=O)n(C)c(=O)n2C -2.22%, CCCCNc1ccc(-c2nc(-c3ccccn3)no2)cc1[N+](=O)[O-] -2.66%, Cc1cc(C)c(NC(=O)C(C)n2c(=O)cc(-c3ccccc3)c3c(C)nn(C)c32)c(C)c1 (stereo unspecified) 0.987%, Cc1nnc2c(N3CCN(c4ccc(F)cc4)CC3)nc3ccc(C(=O)c4ccccc4)cc3n12 -3.21%, Cc1ccccc1C(=O)OCc1cc(=O)n2nc(C3CCCCC3)sc2n1 -1.07%, O=C(NCCc1csc(-c2cccnc2)n1)c1ccccc1 9.75%, O=C(CN1C(=O)C2(SCC(=O)N2c2cccc(F)c2)c2ccccc21)NCCc1ccccc1 (stereo unspecified) 35.7%, C[C@H]1[C@@H](OC(=O)CCC(=O)O)O[C@@H]2O[C@@]3(C)CC[C@@H]4[C@H](C)CC[C@@H]1[C@@]24OO3 -15.2%, CC1CCCCN1CCCNC(=O)CN1C(=O)CSc2ccc(S(=O)(=O)N3CCOCC3)cc21 (stereo unspecified) -10.7%, CCc1ccc(NC(=O)Nc2ccccc2OCc2cc(=O)n3ccccc3n2)cc1 -6.13%, COc1ccc(OC)c(NC(=O)Cn2ccn(-c3ccc(OC)c(OC)c3)c(=O)c2=O)c1 7.21%, Cc1cc(Cl)ccc1NC(=O)Cc1ccc(NC(=O)N2CCCCc3ccccc32)cc1 -2.66%, COC(=O)c1cccc(NC2=NS(=O)(=O)c3ccccc32)c1 1.11%, CCOC(=O)CNC(=O)N1CCCN(S(=O)(=O)c2ccc3c(ccn3CC)c2)CC1 -11.5%, Cc1ccc(-c2cc3ncc4c(n3n2)-c2cc(F)ccc2OC4)cc1 46.1%, CCOc1ccccc1NC(=O)N(Cc1ccc(C)o1)C1CCN(C(C)=O)CC1 0.757%, COc1ccc(C)c2sc(N3CCN(C(=O)c4cccc(F)c4)CC3)nc12 7.96%, COc1ccc(C)cc1NC(=O)C1CCN(S(=O)(=O)c2cc(Br)cc3c2N(C(C)=O)CC3)CC1 2.29%, CCOc1ccc(NC(=O)N2CCN(c3nnc(C)c4c(C)n(-c5ccccc5)nc34)CC2)cc1 4.46%, CCCc1nnc(NC(=O)c2nc(SCC)ncc2Cl)s1 -2.87%, CCOC(=O)C1=C(CS(=O)(=O)c2ccc(F)c(C)c2)NC(=O)NC1c1ccccc1OC (stereo unspecified) 6.19%, COc1ccc(C)cc1NC(=O)C1CCCN(c2ncnc3onc(C)c23)C1 (stereo unspecified) 0.325%, O=c1c(=O)n(-c2ccc(F)c(F)c2)ccn1Cc1ccc(F)cc1Cl 8.93%, CCOc1ccccc1NC(=O)CN(C)S(=O)(=O)c1ccc(C(=O)N2CCOCC2)s1 16.4%, CCC(C(=O)NCc1ccccc1OC)n1nc(C)n2c(cc3occc32)c1=O (stereo unspecified) 6.13%, Cc1oc(-c2ccccc2Cl)nc1CS(=O)(=O)CC(=O)NCc1ccc(F)cc1 9.85%, Cc1ccc2c(=O)cc(C(=O)Nc3sc4c(c3C(=O)NCC3CCCO3)CCC4)oc2c1 (stereo unspecified) 21.7%, O=C(CC1N=C2c3ccccc3N=C(SCc3ccccc3Cl)N2C1=O)NCCc1ccccc1 (stereo unspecified) -14%, CCOc1ccc(-n2nc3ccc(NC(=O)c4ccc(OC)c(Cl)c4)cc3n2)cc1 3.36%, CCCCn1c(=O)n(-c2cc(OC)ccc2OC)c(=O)c2c3c(sc21)CN(C(C)=O)CC3 10.5%, Cc1cc(C)cc(NC(=O)N2CCC(CN3CCOCC3)CC2)c1 -6.29%, O=C(CN1CCCN(Cc2ccccc2F)S1(=O)=O)Nc1ccc(F)c(Cl)c1 -0.175%, CC(C)NC(=O)N1[C@H](c2cccs2)[C@@H](C)C(=O)[C@@H](C)[C@@H]1c1cccs1 -1.99%, COc1ccc(C(=O)Nc2ccc(N(C)Cc3ccccc3)c(C(=O)O)c2)cc1 -7.68%, COC(=O)c1cc2oc(C)cc2n1CC(=O)Nc1ccc(C(C)C)cc1 -1.91%, CCc1cccc(C)c1NC(=O)Cn1nc(C)n2cccc2c1=O -5.41%, COCc1cc(C)nc2c1C(=O)NC(c1ccc(F)cc1)N2Cc1ccccc1 (stereo unspecified) 0.492%, COc1ccc(-c2nnc(SCC(=O)NCCC(C)C)nc2-c2ccc(OC)c(OC)c2)cc1OC 0.837%, CCOC(=O)c1c(C)oc2nc(C)nc(NCC3CCN(Cc4ccc(C)cc4)CC3)c12 1.79%

outcome, inactive:
CCn1c(=O)c2cc(C(=O)NCCCN3CCN(c4ccc(F)cc4)CC3)sc2c2ccccc21, COc1ccc(CNC(=O)CN2C(=O)CSc3ccc(S(=O)(=O)N(C)C)cc32)cc1, CC1CCN(S(=O)(=O)c2cc3c4c(c2)C(C)C(=O)N4CCC3)CC1 (stereo unspecified), Cc1cccc(N2C(=O)CSC23C(=O)N(CC(=O)Nc2cccc(Cl)c2)c2ccccc23)c1 (stereo unspecified), CCOC(=O)c1cc(C)n(CC2CCC(C(=O)Nc3cccc(Cl)c3)CC2)c1C (stereo unspecified), CCc1cccc(NC(=O)Cn2c(=O)n(CCC(=O)NCc3ccccc3Cl)c(=O)c3sccc32)c1, Cc1ccc(C)c(N2CCN(S(=O)(=O)c3ccc(-c4cnc(C5CC5)o4)cc3)CC2)c1, COc1ccc(COC(=O)C2=C(C)NC(=O)CC2c2cccc(Cl)c2Cl)cc1 (stereo unspecified), CCc1ccc(NS(=O)(=O)c2ccc(-c3cc(C)no3)cc2)cc1, Cc1cccc(C(=O)NC2(C(F)(F)F)N=C(c3ccccc3)N(C3CCCCC3)C2=O)c1 (stereo unspecified), CCOC(=O)N1CCc2c(sc3c2c(=O)n(-c2ccc(F)cc2)c(=O)n3CC(=O)c2ccc(Cl)cc2)C1, CC(=O)C1=C(c2ccc(F)cc2)N(C(C)=O)n2c(nnc2C2CCCCC2)S1, COc1ccc(-c2nnn3c2nc(NCc2ccc(C)cc2)c2ccccc23)cc1, CCOC(=O)c1cnc(N2CCN(c3cccc(C)c3C)CC2)c2ccccc12, Cc1ccc(Nc2c(-c3ccc(C)s3)nc3ccccn23)cc1, CCc1ccc(C(=O)c2cn(CC(=O)Nc3cccc(OC)c3)c3cc4c(cc3c2=O)OCO4)cc1, O=C(CSc1nnc(-c2ccc(Cl)cc2)o1)c1ccc([N+](=O)[O-])cc1, O=C(c1ccccc1Br)N(Cc1ccco1)Cc1ccco1, CCn1c(SCc2c(F)cccc2Cl)nc(=O)c2c(C(=O)OC)cc(C3CC3)nc21, CCc1nn2c(=O)cc(COC(=O)c3ccccc3)nc2s1, CCOC(=O)c1noc2ncn(CC(=O)Nc3cccc(C(F)(F)F)c3)c(=O)c12, CCc1nn(CC(=O)N2CCCCC2)c(=O)c2cc3occc3n12, Cc1cc(Nc2cccc(Cl)c2)nc2ccc(NC(=O)c3cncc(Br)c3)cc12, COc1ccc(-n2nc(C(=O)Nc3cc(C)ccn3)c3c4ccccc4n(C)c3c2=O)cc1, CCOC(=O)C1=C(CN2CCN(c3ccccc3OC)CC2)NC(=O)NC1c1ccccc1 (stereo unspecified), CCOC(=O)Cn1c(=O)n(CC2CCCO2)c2nc(-c3ccccc3)nc(C(N)=O)c21 (stereo unspecified), CCCCNC(=O)c1ccc2c(=O)n(Cc3ccc(OC)cc3)c(=O)[nH]c2c1, Cc1ccc(CNCc2ccccc2Cl)s1
